Experimental data published in PubChem BioAssay (NCI).
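Values below derive from 48-hour exposures of cells grown in 96-well plates, with endpoints linearly interpolated between the two concentrations bracketing the appropriate inhibition level. GI50 = concentration required for 50% inhibition of growth. TGI: concentration producing complete growth inhibition.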

Tested on: NCI-H322M lung
Experiment: NCI tumour cell line growth inhibition, 48 h

SMILES | GI50 | TGI
CCC(=O)Nc1cc(Nc2cc(NC3CC3)n3ncc(C#N)c3n2)ccc1C | 1630 nM | 22.5 µM
CNC(=O)c1cc(Oc2ccc3c(c2)sc2nc(-c4ccc(N(C)C)cc4)cn23)ccn1 | 1230 nM | > 50 µM
